Results as given in publication PMC4336329 (PLoS ONE, 2015).
About 14,000 (4.5%) of roughly 310,000 compounds showed an effect of 50% or more. Effects have a minus sign here. This is one part of the list.

molecular target: human ether-à-go-go-related gene (hERG) potassium channel (human, UniProt Q12809); experiment: primary screen, population patch clamp on CHO cells stably expressing hERG
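Further: peak tail current of the secondary pulse compared with the same well before compound.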

human ether-à-go-go-related gene (hERG) potassium channel, sequence (Q12809 whole entry, looked up): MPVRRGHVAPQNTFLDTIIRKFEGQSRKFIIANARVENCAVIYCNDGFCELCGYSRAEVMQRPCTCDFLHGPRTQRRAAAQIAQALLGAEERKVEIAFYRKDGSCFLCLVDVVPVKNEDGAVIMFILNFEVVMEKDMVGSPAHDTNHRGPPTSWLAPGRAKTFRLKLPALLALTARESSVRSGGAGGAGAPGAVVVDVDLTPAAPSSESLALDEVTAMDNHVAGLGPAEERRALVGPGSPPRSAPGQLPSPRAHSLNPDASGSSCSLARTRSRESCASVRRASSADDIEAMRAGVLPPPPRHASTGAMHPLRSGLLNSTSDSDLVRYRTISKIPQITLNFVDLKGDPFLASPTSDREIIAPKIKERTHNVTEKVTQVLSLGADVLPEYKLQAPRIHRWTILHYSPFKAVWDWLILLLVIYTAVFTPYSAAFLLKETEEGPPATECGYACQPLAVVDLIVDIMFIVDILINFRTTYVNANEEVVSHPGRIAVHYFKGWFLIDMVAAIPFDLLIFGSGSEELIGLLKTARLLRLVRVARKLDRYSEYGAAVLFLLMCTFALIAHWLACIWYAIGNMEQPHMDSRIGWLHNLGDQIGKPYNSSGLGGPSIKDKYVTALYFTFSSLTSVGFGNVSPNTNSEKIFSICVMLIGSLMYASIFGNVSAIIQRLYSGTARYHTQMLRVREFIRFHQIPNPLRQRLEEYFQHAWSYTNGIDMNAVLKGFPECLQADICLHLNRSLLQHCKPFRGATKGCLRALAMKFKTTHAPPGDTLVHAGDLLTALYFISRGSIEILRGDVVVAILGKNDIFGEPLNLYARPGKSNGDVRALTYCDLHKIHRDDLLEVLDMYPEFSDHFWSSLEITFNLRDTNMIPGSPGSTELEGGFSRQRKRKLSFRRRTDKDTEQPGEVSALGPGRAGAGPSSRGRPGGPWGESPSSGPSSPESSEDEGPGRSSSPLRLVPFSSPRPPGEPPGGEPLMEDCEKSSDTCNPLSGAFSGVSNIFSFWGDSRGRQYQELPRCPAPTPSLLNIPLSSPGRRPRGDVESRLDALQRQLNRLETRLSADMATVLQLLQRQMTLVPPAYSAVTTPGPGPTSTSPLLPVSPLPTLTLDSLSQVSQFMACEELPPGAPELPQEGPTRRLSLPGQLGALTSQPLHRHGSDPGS

Compared with `CCOc1ccccc1N(CC)C(=O)c1ccc2c(=O)n3c(nc2c1)CCCCC3`, `COc1ccccc1-c1nc2ccc(Cl)cc2c(=O)n1O` is higher in “hERG current change (%, negative = inhibition) at 10uM” value: -7.22% for the first, 10.3% for the second.

Compared with `CN(C)c1ncc([N+](=O)[O-])cc1C(F)(F)F`, `COc1ccc([N+](=O)[O-])cc1N(CC(=O)NC1CCCCC1)S(C)(=O)=O` is lower in “hERG current change (%, negative = inhibition) at 10uM” value: 19.6% for the first, 5.91% for the second.

Compared with `O=C(Nn1cnc2ccccc2c1=O)c1ccc([N+](=O)[O-])cc1Cl`, `CCn1c(=O)cc(SCC(=O)Nc2ccc(C)cn2)c2ccccc21` is lower in “hERG current change (%, negative = inhibition) at 10uM” value: 14.1% for the first, 4.05% for the second.

First: Cc1cc(C)c(CN2CCC(n3nccc3NC(=O)C3CCCC3)CC2)cc1C
Second: CCn1cc(C(=O)NCCCN2CCCC(C)C2)c(=O)c2cc(S(=O)(=O)N(C)C3CCCCC3)ccc21 (centres unmarked)
The “hERG current change (%, negative = inhibition) at 10uM” value of the first is higher: -70.7% for the first, -80.1% for the second.

First: CCC(C)CCCCCCCCCCC(=O)O (centres unmarked)
Second: C=C(C)COc1ccc2c(CC)cc(=O)oc2c1
The “hERG current change (%, negative = inhibition) at 10uM” value of the first is higher: 36.1% for the first, -20% for the second.

First: Nc1[nH]nc2nc(NCc3ccccc3)c3c(c12)CCN(Cc1ccccc1)C3
Second: CC(C)(C)c1ccc(C(=O)N2CCN(Cc3ccccc3)CC2)cc1
The “hERG current change (%, negative = inhibition) at 10uM” value of the first is lower: -30.1% for the first, -3.08% for the second.

Compared with `NC(=O)Nc1ccc(C(=O)OCC(=O)N(Cc2ccccc2)C2CCS(=O)(=O)C2)cc1` (centres unmarked), `COc1ccc(NS(=O)(=O)c2cccc(C(=O)OCC(=O)NC3CC3)c2)cc1` is lower in “hERG current change (%, negative = inhibition) at 10uM” value: 39.5% for the first, 3.33% for the second.

First: CCOc1ccc(S(=O)(=O)Nc2ccc(C(=O)N3CCCC3)cc2)cc1
Second: CCC1CCCCN1C(=O)c1cc(COc2ccc(-n3cncn3)cc2)on1 (centres unmarked)
The “hERG current change (%, negative = inhibition) at 10uM” value of the first is higher: 4.68% for the first, -48.5% for the second.

First: CSc1cccc(NC(=S)N(CCCN2CCCC(C)C2)Cc2cccs2)c1 (centres unmarked)
Second: CCCCc1ccccc1NC(=S)NC1CCCC1
The “hERG current change (%, negative = inhibition) at 10uM” value of the first is lower: -75.6% for the first, -2.82% for the second.

Going from `Cc1cc(C(=O)Nc2ccc(C(=O)O)cc2)c(-c2ccccc2)o1` to `CC(=O)c1ccc(NC(=O)CSc2nnc(Cc3cccn3C)n2-c2ccc(F)cc2)cc1`, the “hERG current change (%, negative = inhibition) at 10uM” value falls from -6.94% to -12.9%.

Compared with `Cc1nn(Cc2cccc(C(=O)NN)c2)c(C)c1Cl`, `CCn1nccc1C(=O)Nc1ccc(Cl)cc1Cl` is lower in “hERG current change (%, negative = inhibition) at 10uM” value: 8.48% for the first, 0.258% for the second.

First: CCCS(=O)(=O)N1CCc2ccc(NC(=O)C3CCCO3)cc2C1 (centres unmarked)
Second: CCOC(=O)CNC(=O)C1CCN(S(=O)(=O)c2ccc(-c3nn[nH]n3)cc2)CC1
The “hERG current change (%, negative = inhibition) at 10uM” value of the first is lower: -16.2% for the first, 8.58% for the second.

Compared with `Cc1nn2c(SCC(=O)c3cccs3)cc(C(C)(C)C)nc2c1-c1ccccc1`, `O=c1[nH]c2ccccc2nc1/C=C(\O)c1cccs1` is higher in “hERG current change (%, negative = inhibition) at 10uM” value: 4.2% for the first, 19.5% for the second.

First: CC1CN(S(=O)(=O)c2cccc(C(=O)N=c3sccn3C)c2)CC(C)O1 (centres unmarked)
Second: O=C(CCN1CCN(S(=O)(=O)c2ccc(Br)cc2)CC1)Nc1ccccc1F
The “hERG current change (%, negative = inhibition) at 10uM” value of the first is higher: -6.06% for the first, -31.2% for the second.

Going from `Cc1ccc(-n2nccc2-c2nn(-c3cccc(C(F)(F)F)c3)c(=O)n(C)c2=O)cc1` to `COc1ccc(-c2cc(-c3ccc(F)cc3)nc(N3CCN(C)CC3)n2)cc1`, the “hERG current change (%, negative = inhibition) at 10uM” value falls from 14.9% to -3.88%.

Going from `O=S(=O)(c1ccccc1)N1CCN(S(=O)(=O)c2ccccc2)C1` to `COC(=O)C1=C(C)NC2=C(C(=O)CCC2)C1c1cn(Cc2ccc(Br)cc2)nc1-c1ccccc1` (centres unmarked), the “hERG current change (%, negative = inhibition) at 10uM” value falls from -11.5% to -32.3%.

First: Cn1nc(C(=O)NC2=NCCS2)ccc1=O
Second: COc1ccc(CNC(=O)c2cnc(C)cn2)cc1
The “hERG current change (%, negative = inhibition) at 10uM” value of the first is lower: 2.66% for the first, 5.01% for the second.

Compared with `CC(=O)NNC(=S)NC(=O)c1cccc([N+](=O)[O-])c1`, `Cc1[nH]nc(SCC(=O)NCc2ccc(F)cc2)c1[N+](=O)[O-]` is lower in “hERG current change (%, negative = inhibition) at 10uM” value: 13.1% for the first, 9.21% for the second.

Compared with `CCOCCN(C=O)c1cccc(OC)c1`, `O=C(CN1C(=O)/C(=C/c2cccc(Br)c2)SC1=S)N1CCCC1` is higher in “hERG current change (%, negative = inhibition) at 10uM” value: 1.49% for the first, 7.44% for the second.

Going from `COC(=O)C1=C(c2ccc(OC(F)(F)F)cc2)C[C@@H]2CC[C@H]1N2C(=O)N1CCCCC1` to `COc1cc([C@H]2[C@@H]3CCCC[C@]3(O)CCN2Cc2ccccc2F)ccc1O`, the “hERG current change (%, negative = inhibition) at 10uM” value rises from -56.3% to -12.8%.

Compared with `CNC(=O)/C(C#N)=C/c1c(N2CCN(C)CC2)nc2c(C)cccn2c1=O`, `Cc1cccc(NC(=O)C2CCN(S(=O)(=O)c3c(C)noc3/C=C/c3ccco3)CC2)n1` is lower in “hERG current change (%, negative = inhibition) at 10uM” value: 17.2% for the first, -7.68% for the second.

First: Cc1ccc2c(c1)OC(c1ccc3c(c1)OCCO3)CC2=O (centres unmarked)
Second: OCCC1CN(Cc2cccn2-c2nccs2)CCN1Cc1ccc(F)c(F)c1 (centres unmarked)
The “hERG current change (%, negative = inhibition) at 10uM” value of the first is higher: 16.3% for the first, -80.7% for the second.
